Test results as given in patent publication US8343475B2, “Small cationic antimicrobial peptides” (priority 2006, dated 2013).
Not every detail of the peptide structures is certain; ends, links or a residue may be inferred. Residues, ends and D or L forms follow the SMILES beside them.

Columns and labels:
Experiment in all cases: Chemokine induction in PBMC (capture ELISA)
Format in all cases: cell-based
[1] = test system: MCP-3 release by human PBMC; details: background (6) subtracted
Protocol: FIG. 16. Induction of MCP3 release by 7.5×10^5 human PBMC in response to treatment with 20 or 100 μg/ml of different peptides for 24 hours.
(§1) Venous blood (20 ml) from healthy volunteers was collected in Vacutainer® collection tubes containing sodium heparin as an anticoagulant (Becton Dickinson, Mississauga, ON) in accordance with UBC ethical approval and guidelines. Blood was diluted 1:1 with complete RPMI 1640 medium and separated by centrifugation over a Ficoll-Paque® Plus (Amersham Biosciences, Piscataway, N.J., USA) density gradient. White blood cells were isolated from the buffy coat, washed twice in RPMI 1640 complete medium, and the number of peripheral blood mononuclear cells (PBMC) was determined by trypan blue exclusion. PBMC (5×10^5) were seeded into 12-well tissue culture dishes (Falcon; Becton Dickinson) at 0.75 to 1×10^6 cells/ml at 37° C. in 5% CO2. The above conditions were chosen to mimic conditions for circulating blood monocytes entering tissues at the site of infection via extravasation.
(§2) Following incubation of the cells under various treatment regimens, the tissue culture supernatants were centrifuged at 1000×g for 5 min, then at 10,000×g for 2 min to obtain cell-free samples. Supernatants were aliquoted and then stored at −20° C. prior to assay for various chemokines by capture ELISA (eBioscience and BioSource International Inc., CA, USA respectively)

[2] = test system: CXCL1 (Gro-α) release by human PBMC; details: background (196) subtracted
Protocol: FIG. 17. Induction of CXCL1 (Gro-α) release by 7.5×10^5 human PBMC in response to treatment with 20 or 100 μg/ml of different peptides for 24 hours.
as §1, §2

[3] = test system: MCP-1 release by human PBMC; details: for Chemokine induction MCP-1: background (204) subtracted; for induction of MCP1: 20 or 100 μg/ml peptide, 24 hours (FIG. 15)
Protocol: FIG. 15. Induction of MCP-1 release by 7.5×10^5 human PBMC in response to treatment with 20 or 100 μg/ml of different peptides for 24 hours.
as §1, §2

| SMILES | Chemokine induction MCP-3 ([1]; 20 μg/ml peptide) [pg/mL] | Chemokine induction MCP-3 ([1]; 100 μg/ml peptide) [pg/mL] | Chemokine induction Gro-α ([2]; 20 μg/ml peptide) [pg/mL] | Chemokine induction Gro-α ([2]; 100 μg/ml peptide) [pg/mL] | Chemokine induction MCP-1 ([3]; 20 μg/ml peptide) [pg/mL] | Chemokine induction MCP-1 ([3]; 100 μg/ml peptide) [pg/mL] | induction of MCP1 [3] |
| --- | --- | --- | --- | --- | --- | --- | --- |
| CC[C@H](C)[C@H](NC(=O)[C@H](CCCNC(=N)N)NC(=O)[C@H](Cc1ccccc1)NC(=O)[C@H](CCCNC(=N)N)NC(=O)[C@@H](N)CCCCN)C(=O)N[C@@H](CCCNC(=N)N)C(=O)N[C@H](C(=O)N[C@@H](CCCNC(=N)N)C(=O)N[C@H](C(N)=O)C(C)C)C(C)C [compound 1037] (H-KRFRIRVRV-NH2) | 0 | 0 | -12 | -21 | 50 | 33 |  |
| CC[C@H](C)[C@H](NC(=O)[C@H](CCCNC(=N)N)NC(=O)[C@H](Cc1c[nH]c2ccccc12)NC(=O)[C@H](CCC(N)=O)NC(=O)[C@@H](N)Cc1c[nH]cn1)C(=O)N[C@@H](CCCNC(=N)N)C(=O)N[C@H](C(=O)N[C@@H](C)C(=O)N[C@H](C(=O)N[C@@H](CCCNC(=N)N)C(=O)N[C@@H](CCCNC(=N)N)C(=O)N[C@@H](Cc1c[nH]cn1)C(N)=O)C(C)C)C(C)C [HH14, HQWRIRVAVRRH] (H-HQWRIRVAVRRH-NH2) | 140 | 273 | 53 | 1279 | 0 | 39 | induced |
| CC[C@H](C)[C@H](NC(=O)[C@H](CC(N)=O)NC(=O)[C@H](CCCNC(=N)N)NC(=O)[C@@H](NC(=O)[C@@H](NC(=O)[C@H](Cc1c[nH]c2ccccc12)NC(=O)[C@H](CCCNC(=N)N)NC(=O)[C@H](Cc1c[nH]c2ccccc12)NC(=O)[C@H](CCCNC(=N)N)NC(=O)[C@@H](N)CCCCN)[C@@H](C)CC)C(C)C)C(=O)N[C@@H](CCCNC(=N)N)C(=O)N[C@@H](CCCNC(=N)N)C(N)=O [compound 1035] (H-KRWRWIVRNIRR-NH2) | 0 | 1 | 10 | 27 | 15 | 75 |  |
| CC[C@H](C)[C@H](NC(=O)[C@H](CCCNC(=N)N)NC(=O)[C@H](CC(C)C)NC(=O)[C@H](CCC(N)=O)NC(=O)[C@@H](N)C(C)C)C(=O)N[C@@H](CCCNC(=N)N)C(=O)N[C@H](C(=O)N[C@@H](C)C(=O)N[C@H](C(N)=O)C(C)C)C(C)C [compound 1005, VQLRIRVAV] (H-VQLRIRVAV-NH2) | 23 | 126 | 332 | 2247 | 1228 | 4555 |  |
| CC[C@H](C)[C@H](NC(=O)[C@H](CCCNC(=N)N)NC(=O)[C@H](Cc1c[nH]c2ccccc12)NC(=O)[C@H](CCC(N)=O)NC(=O)[C@@H](N)C(C)C)C(=O)N[C@@H](CCCNC(=N)N)C(=O)N[C@H](C(=O)N[C@@H](CCCNC(=N)N)C(=O)N[C@H](C(=O)N[C@H](C(=O)N[C@@H](CCCCN)C(=O)N[C@@H](CCCCN)C(N)=O)[C@@H](C)CC)C(C)C)C(C)C [compound 1026, VQWRIRVRVIKK] (H-VQWRIRVRVIKK-NH2) | 1 | 430 | 77 | 2124 | 403 | 4717 |  |
| CC[C@H](C)[C@H](NC(=O)[C@H](CCCNC(=N)N)NC(=O)[C@H](Cc1ccccc1)NC(=O)[C@H](CCCNC(=N)N)NC(=O)[C@@H](N)CCCCN)C(=O)N[C@@H](CCCNC(=N)N)C(=O)N[C@H](C(=O)N[C@@H](CCCNC(=N)N)C(=O)N[C@H](C(=O)N[C@H](C(=O)N[C@@H](CCCNC(=N)N)C(=O)N[C@@H](CCCCN)C(N)=O)[C@@H](C)CC)C(C)C)C(C)C [HH15, KRFRIRVRVIRK] (H-KRFRIRVRVIRK-NH2) | 0 | 5 | 17 | 17 | 61 | 303 |  |
| CC[C@H](C)[C@H](NC(=O)[C@H](CCCNC(=N)N)NC(=O)[C@H](CCC(N)=O)NC(=O)[C@@H](NC(=O)[C@@H](N)CC(C)C)[C@@H](C)CC)C(=O)N[C@@H](CCCNC(=N)N)C(=O)N[C@H](C(=O)N[C@@H](CCCNC(=N)N)C(=O)N[C@@H](CC(N)=O)C(=O)N[C@H](C(=O)N[C@H](C(=O)N[C@@H](CCCCN)C(N)=O)C(C)C)[C@@H](C)CC)C(C)C [compound 1028] (H-LIQRIRVRNIVK-NH2) | 0 | 7 | -17 | 34 | 41 | 385 |  |
| CC[C@H](C)[C@H](NC(=O)[C@H](CCCNC(=N)N)NC(=O)[C@H](CC(C)C)NC(=O)[C@H](CCCNC(=N)N)NC(=O)[C@@H](N)C(C)C)C(=O)N[C@@H](CCCNC(=N)N)C(=O)N[C@H](C(=O)N[C@@H](C)C(=O)N[C@H](C(=O)N[C@H](C(=O)N[C@@H](CCCNC(=N)N)C(=O)N[C@@H](CCCCN)C(N)=O)[C@@H](C)CC)C(C)C)C(C)C [HH8, VRLRIRVAVIRK] (H-VRLRIRVAVIRK-NH2) | 1 | 3 | 7 | 4 | 194 | 180 | induced |
| CC[C@H](C)[C@H](NC(=O)[C@H](CCCNC(=N)N)NC(=O)[C@H](CC(C)C)NC(=O)[C@H](CCCNC(=N)N)NC(=O)[C@@H](N)C(C)C)C(=O)N[C@@H](CCCNC(=N)N)C(=O)N[C@@H](Cc1c[nH]c2ccccc12)C(=O)N[C@@H](Cc1c[nH]c2ccccc12)C(=O)N[C@H](C(=O)N[C@@H](CC(C)C)C(=O)N[C@@H](CCCNC(=N)N)C(=O)N[C@@H](CCCCN)C(N)=O)C(C)C [compound 1020, VRLRIRWWVLRK] (H-VRLRIRWWVLRK-NH2) | 82 | 35 | 760 | 370 | 2485 | 2813 |  |
| CC[C@H](C)[C@H](NC(=O)[C@H](CCCNC(=N)N)NC(=O)[C@H](CC(C)C)NC(=O)[C@H](CCCNC(=N)N)NC(=O)[C@@H](N)C(C)C)C(=O)N[C@@H](CCCNC(=N)N)C(=O)N[C@H](C(=O)N[C@@H](C)C(=O)N[C@H](C(N)=O)C(C)C)C(C)C [compound 1013, VRLRIRVAV] (H-VRLRIRVAV-NH2) | 22 | 214 | 609 | 2101 | 1914 | 4734 |  |
| CC[C@H](C)[C@H](NC(=O)[C@H](CCCNC(=N)N)NC(=O)[C@H](Cc1ccccc1)NC(=O)[C@H](CCCCN)NC(=O)[C@H](CCCCN)NC(=O)[C@@H](NC(=O)[C@@H](NC(=O)[C@@H](NC(=O)[C@H](CCCNC(=N)N)NC(=O)[C@@H](N)CCCNC(=N)N)C(C)C)[C@@H](C)CC)C(C)C)C(=O)N[C@@H](CCCNC(=N)N)C(=O)N[C@@H](CCCNC(=N)N)C(N)=O [compound 1033] (H-RRVIVKKFRIRR-NH2) | 61 | 6 | 359 | 6 | 1747 | 301 |  |
| CC[C@H](C)[C@H](NC(=O)[C@H](CCCNC(=N)N)NC(=O)[C@H](Cc1c[nH]c2ccccc12)NC(=O)[C@H](CCCNC(=N)N)NC(=O)[C@@H](N)C(C)C)C(=O)N[C@@H](CCCNC(=N)N)C(=O)N[C@H](C(=O)N[C@@H](C)C(=O)N[C@H](C(=O)N[C@H](C(=O)N[C@@H](CCCNC(=N)N)C(=O)N[C@@H](C)C(N)=O)[C@@H](C)CC)C(C)C)C(C)C [HH4, VRWRIRVAVIRA] (H-VRWRIRVAVIRA-NH2) | 157 | 62 | 333 | 370 | 7 | 30 | induced |
